Measurements published in PubChem BioAssay AID1963576 (National Center for Advancing Translational Sciences (NCATS), 2024).
Screen size: about 46,000 compounds; about 60 (0.1%) were called active. Roughly 3% stayed inconclusive and do not appear here. Calls come from the whole dose curve; as a rule, active = well fitted inhibition curve with a large enough effect; inconclusive = small, poorly fitted or top-dose-only effect; inactive = no such curve, though single readings can be large or run the other way. The list shows a part of the results.

Test: Primary qHTS assay for Inhibitors of ovarian cancer metastasis using an organotypic tumor microenvironment (TME) model.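 For activity change, negative = inhibition: plate controls were DMSO wells for no effect and tomatine positive control wells for full effect.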 Note: nearly all actives have a fitted effect of over 65% in size.
Details: SKOV3ip1-GFP adhesion/invasion on 3D omental model, fluorescence; series mostly up to 45.8 µM; activity change, negative = inhibition: at the top concentration
Procedure, shortened: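 Primary human omental fibroblast/mesothelial 3D culture pre-formed 48 h. SKOV3ip1-GFP cells added with compounds (0.36-46 umol/L), incubated 2 h RT/16 h 37 C, fixed; GFP cells quantified at 488/509 nm.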

outcome, inactive:
COc1cc(C(=O)Nc2ccccc2OCc2cc(=O)n3cc(C)sc3n2)cc(OC)c1OC
CCOc1ccccc1C(=O)N(Cc1ccc(N(C)C)cc1)Cc1ccco1
CCOC(=O)CCN(Cc1ccccc1)S(=O)(=O)c1csc(C(N)=O)c1
O=C(NCCCN1CCN(c2ccc(F)cc2)CC1)c1cc2c(s1)-c1ccccc1OC2
Cc1ccc(C)c(NC(=O)C(=O)NCC(c2cccnc2)N2CCN(c3ccc(F)cc3)CC2)c1 (centres undefined)
COc1ccc(CNC(=O)c2oc3c(c2C)-c2nn(Cc4ccccc4Cl)cc2CC3)cc1
Cc1ccc(S(=O)(=O)c2cn(C)c3cc(N4CCN(c5ccccc5)CC4)c(F)cc3c2=O)cc1
COc1ccc(NC(=O)c2c(NCc3ccc(C)o3)sc3c2CCC(C)C3)cc1 (centres undefined)
COc1ccc(NC(=O)Cn2c(=O)n(-c3ccc(Cl)cc3)c(=O)c3c(C)c(C(=O)N(C)C)sc32)cc1Cl
O=C(NC1CC(=O)N(c2ccccc2)C1)C1CCCC1 (centres undefined)
COc1ccc(Br)c2c1-c1nc(NC(=O)c3ccccc3SC)sc1C2
Cc1cccc(Oc2nc3c(C)cccn3c(=O)c2/C=C(\C#N)c2nc3ccccc3s2)c1
CCOC(=O)c1ccc(NC2=CC(c3ccc(Br)cc3)N(c3ccc(C(=O)OCC)cc3)C2=O)cc1 (centres undefined)
CCc1ccc(-c2[nH]c3c(c2-c2c(-n4cccc4)n(C)c(=O)n(C)c2=O)c(=O)n(C)c(=O)n3C)cc1
Cc1ccc(Cn2c(=O)c3c(nc4n3CCN4c3cc(C)cc(C)c3)n(C)c2=O)cc1
CC1=C(C(=O)Nc2ccccc2)C(c2ccc(C(=O)O)cc2)n2nc(SCC(=O)c3ccc(C)cc3)nc2N1 (centres undefined)
CCCN1CCN(CC2=C(C(=O)OCC)C(c3ccc(Cl)cc3)NC(=O)N2)CC1 (centres undefined)
COCCCNC(=O)c1ccc(NC(=O)N2CCCCc3ccccc32)cc1
COc1ccc(-c2nc(CCNC(=O)c3cc(OC)c(OC)c(OC)c3)cs2)cc1
CCC(C)n1c(=N)c(S(=O)(=O)c2ccc(C)cc2)cc2c(=O)n3cc(C)ccc3nc21 (centres undefined)
CCOC(=O)N1CCc2c(sc(NCc3ccc(OC)c(Br)c3)c2C(=O)Nc2cc(OC)ccc2OC)C1
O=C(CSc1nc2ccccc2nc1Cc1ccccc1)N1CCN(c2ccccc2)CC1
COc1ccc(CCNC(=O)CCc2c(C)c3cc4c(C)coc4cc3oc2=O)cc1
CN(c1ccccc1)c1ncnc2c1cnn2C
CCC(=O)Nc1ccccc1-c1nc2ccccc2n(C(C)C(=O)Nc2ccc(OC)cc2)c1=O (centres undefined)
Cc1ccc2c(c1)C(=O)OC(C(=O)Nc1ncc(Cc3ccccc3)s1)C2 (centres undefined)
Cc1cccc(C(=O)N(Cc2ccco2)Cc2ccccc2F)c1

Activity change, negative = inhibition, inactive:
Cn1ccc2cc(S(=O)(=O)N3CCCN(C(=O)Nc4ccc(Br)cc4)CC3)ccc21 -1.16%
CCN(C(=O)Cn1nc2c3cc(F)ccc3n(Cc3cccc(C)c3)cc-2c1=O)c1cccc(C)c1 -3.96%
COc1ccc(NC(=O)c2c(NC(=O)COc3ccc(Cl)cc3)sc3c2CCCCC3)cc1 -0.0777%
Cc1cccc(-c2nc3cc(NC(=O)Cc4ccc(Cl)cc4)ccc3o2)c1 0.234%
CC1=C(C(N)=O)C(c2cccc(C)c2)n2nc(-c3ccc(Cl)cc3)nc2N1 (centres undefined) 0.0811%
CSc1ccccc1NC(=O)C1=CC(c2ccc3c(c2)OCO3)=NS(=O)(=O)N1C 6.97%
CCOc1ccc(-c2nc3c(c(CC)nn3-c3ccccc3)c3cc(OC)c(OC)cc23)cc1 -13.7%
CCOC(=O)c1ccc2c(c1)N(CC(=O)Nc1cc(F)ccc1F)C(=O)c1ccccc1S2 6.55%
N#Cc1cc2c(=O)n3ccccc3nc2n(-c2nnc(SCc3ccc(F)cc3)s2)c1=O 16.8%
COc1ccc(Cn2nnc3c(=O)[nH]c(C4CCCN(C(=O)c5ccccc5Cl)C4)nc32)cc1OC (centres undefined) 1.43%
COc1cc(OC)c(NC(=O)N2CCOc3ccc(C)cc32)cc1Cl -5.02%
Cc1nn(CCCC(=O)NCc2ccccc2)c(=O)c2c1sc1ccccc12 5.03%
CCOc1ccccc1NC(=O)C1CCN(S(=O)(=O)c2ccc(Br)cc2)CC1 0.492%
Cc1ccc(-n2nc(C(=O)N3CCCCC3C)c(=O)n(C)c2=O)cc1 (centres undefined) -8.68%
CCOC(=O)N1CCc2c(sc3c2c(=O)n(Cc2ccccc2)c(=O)n3Cc2cccc(Cl)c2)C1 19.8%
COc1cc(NC(=O)C2=C(C)Nc3nnnn3C2c2ccc(SC)cc2)c(OC)cc1Cl (centres undefined) 14.1%
CC1CN(C(=O)CCC(=O)NCc2cccs2)c2ccccc2O1 (centres undefined) -3.41%
Cc1ccc(CSc2nc(=O)c3c(C)cc(C)nc3n2C2CC2)cc1 16.9%
CCOC(=O)c1cc(-c2ccc(F)cc2)n(CCC(=O)Nc2ccccc2OC)c1C -5.6%
COC(=O)c1ccc2nc(C)cc(Nc3ccc(O)cc3)c2c1 -22.5%
Cc1ccc2c(c1)c(=O)c1ccccc1n2CCCC(=O)Nc1ccc(F)cc1F -3.66%
CCOc1ccc(N2CC(c3nc4ccccc4n3CCCOc3ccc(OC)cc3)CC2=O)cc1 (centres undefined) -1.85%
COCCNC(=O)CSc1nnc(-c2ccc(OC)c(OC)c2)c(-c2ccc(OC)c(OC)c2)n1 1.56%
O=S(=O)(c1ccccc1)c1nc(-c2cccc(Cl)c2)oc1NCc1ccccc1 -6.81%
COc1cccc(Cc2nc3ccccc3nc2SCC(=O)N2CCc3ccccc32)c1 -3.88%
CCOC(=O)c1ccc(NC(=O)C(=O)NCc2ccco2)cc1 9.88%
Cc1cccc(C2NC(=O)c3c(sc4c3CCN(C)C4)N2)c1O (centres undefined) -4.96%
COC(=O)c1cc(Cl)c(NC(=O)/C=C/c2ccc(Cl)cc2Cl)cc1OC -4.73%
Cc1c(C(=O)NCCN(C)C)oc2c1-c1nn(Cc3ccccc3Cl)cc1CC2 5.26%
COc1ccc(N(CC(=O)N2CCN(c3cc(C)ccc3C)CC2)S(=O)(=O)c2c(C)noc2C)cc1 15.9%
CCOC(=O)c1ccc(Nc2nc(C)cc(C)n2)cc1 -16.8%
CC(Sc1nc(-c2ccccc2)c(C#N)c(=O)[nH]1)C(=O)Nc1ccc(F)cc1 (centres undefined) 3.8%
CCCCOc1ccc(S(=O)(=O)Nc2cccc(-c3ccc(N4CCOCC4)nn3)c2)cc1 3%
COc1ccccc1-c1c(C)nn2c(N3CCN(c4ccc(Cl)cc4)CC3)cc(C)nc12 3.84%
CC(C)CCn1c(SCc2ccc(F)cc2Cl)nc2ccsc2c1=O -3.66%
COc1ccc(-c2c(C)nn3c(N4CCC(C(=O)NCCC(C)C)CC4)cc(C)nc23)cc1OC 94.5%
Cc1ccc(-n2ncc3c(NNC(=O)c4ccccc4C)ncnc32)cc1 -26.9%
CC(C)c1ccc(C2c3c(-c4ccccc4O)n[nH]c3C(=O)N2CCc2ccccc2)cc1 (centres undefined) -28.5%
COc1ccc(Cl)cc1NC(=O)CCCn1c(=O)c2cccn2c2cccnc21 6.49%
COc1ccc(CNC(=O)Cc2c(C)c3c(cc(C)c4c(C)coc43)oc2=O)cc1 -0.0135%
C#C[C@]1(O)CC[C@@H]2[C@@H]3CCC4=CC(=O)CC[C@@H]4[C@H]3CC[C@@]21CC -2.85%
COC(=O)c1c(NC(=O)c2ccc(S(=O)(=O)N3CCCCC3C)cc2)sc2c1CCN(C(C)C)C2 (centres undefined) -21.6%
CCOC(=O)c1ccccc1NC(=O)N(Cc1ccc(C)cc1)Cc1cccn1-c1nnc(N2CCCC2=O)s1 -6.22%
Cc1ccc(CNC(=O)c2c(-c3ccccc3F)noc2C)o1 4.08%
COc1cccc(NC(=O)Cn2c(=O)n(CCCC(=O)NCc3ccc4c(c3)OCO4)c(=O)c3ccccc32)c1 -0.353%
Cc1noc(NS(=O)(=O)c2ccc(NC(=O)c3ccc(Br)cc3)cc2)c1C 3.18%
COC(=O)c1nnn(CC(=O)NC(=O)Nc2ccccc2F)c1C(=O)OC 16.4%
Cc1c(Cl)cccc1NC(=O)c1ccc2nc(C(C)C)oc2c1 0.565%
CC(=O)Nc1cc(-c2ccccc2)nn1Cc1cccc(Cl)c1 2.82%
Cc1cccc(NC(=O)NCCOCCn2c(=O)oc3ccccc32)c1C 4.1%
CC(C)Oc1ccc(C(=O)Nc2ccc(-c3nc4ccccc4s3)cc2)cc1 0.887%
CC1Cc2cc(S(=O)(=O)CCC(=O)Nc3ccc(Cl)cc3F)ccc2N1C(=O)C1CC1 (centres undefined) -0.621%
COc1ccc(CCC(=O)NCc2nc3cccnc3n2Cc2ccccc2)cc1 -0.939%
CCOc1ccc(CCNC(=O)CCn2c(=O)c3cccn3c3cccnc32)cc1 2.47%
Cc1ccc(Cl)cc1NC(=O)CCCN1C(=O)CCn2nc(-c3cn(C)c4ccccc34)cc21 -0.658%
COc1ccccc1C(=O)Nc1cc(-c2ccc(C)cc2)no1 0.703%
O=C(O)c1ccc(N2C(=O)c3[nH]nc(-c4ccccc4)c3C2c2cccc(F)c2)cc1 (centres undefined) 1.38%
COc1ccc(N2CCN(C(=O)c3cc4cc5ccc(Cl)cc5nc4o3)CC2)cc1 4.35%
COc1ccc(C)cc1S(=O)(=O)NCC(c1ccc(N(C)C)cc1)N1CCc2ccccc21 (centres undefined) -28.6%
CCc1ccc(C2C(C(=O)Nc3ccc(Cl)cc3)=C(C)Nc3ncnn32)cc1 (centres undefined) -0.734%
COc1cccc(-c2nc3c(c(C)nn3-c3ccccc3)c3cc(OC)c(OC)cc23)c1 -7.2%
CCNc1nc(Oc2ccc(=O)n(-c3ccccc3)n2)nc(N(C)C)n1 -2.39%
COc1cccc(C2C(=O)N(C3CCCCC3)CC(=O)N2Cc2ccc(Cl)cc2)c1 (centres undefined) 4.27%
Cc1cc(NC(=O)N2CCC(CN3CCOCC3)CC2)ccc1Br -14.6%
Cc1ccc(NC(=O)Cn2c(=O)oc3cc(S(=O)(=O)N4CCC(C)CC4)ccc32)cc1Cl -0.104%
CC1CCCCN1C(=O)CSc1n[nH]c(-c2ccccc2)n1 (centres undefined) -7.09%
CC(=O)c1cccc(-n2c(=O)c3c4c(sc3n(CC(=O)c3ccc(Cl)cc3)c2=O)CN(C(C)=O)CC4)c1 18.8%
